Experimental data: the supplement of paper PMC3334620
Over roughly 33,000 sequences, “E-score (-0.5 to 0.5)” has its median near -0.016; the highest 2% begin near 0.31. The list shows a part of the results.

These sequences were tested against Cst6 (UniProt P40535) (assay: PBM E-score (8-mer binding enrichment) (E-score (-0.5 to 0.5)); higher = stronger / more preferred TF binding; most listed sequences are background and not binding sites). Conditions: protein concentration: 200 nM; construct: GST-DNA-binding domain.
Experimental: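 Universal 'all 10-mer' protein binding microarrays (Agilent AMADID 015681) probed with GST-tagged S. cerevisiae TFs (full-length or DBD) made by in vitro transcription/translation (PURExpress), about 100-200 nM. Bound TF was detected with fluorescent anti-GST. Each ungapped 8-mer (which stands for itself and its reverse complement) is scored by the PBM enrichment score (E-score), a modified Wilcoxon-Mann-Whitney statistic from -0.5 to +0.5, computed with the Universal PBM Analysis Suite. Scale: above 0.35 generally sequence-specific binding.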

Row | Sequence | PBM E-score
1 | GATAAGCA | 0.115
2 | ACGCAGCA | -0.0415
3 | AGGCACAC | -0.139
4 | CATCTGAG | -0.0474
5 | AGGGGTGC | -0.184
6 | CGATACTA | 0.1
7 | AGCTTCGG | -0.245
8 | ATGATTGC | 0.24
9 | CACTATCG | -0.00469
10 | TGATGGCA | 0.0289
11 | CTCCGCAA | -0.23
12 | AGAAGATA | 0.133
13 | CGTTTATA | 0.248
14 | CCATTAAA | 0.0506
15 | CACTGGCC | -0.15
16 | CCTCGAGG | 0.104
17 | CTTCCGGC | -0.192
18 | ACCCTGAG | -0.163
19 | ATAACTAG | 0.0926
20 | GACGCACA | 0.183
21 | CTATGATC | 0.0289
22 | ACACCTCA | -0.0121
23 | ACCGGCTC | -0.201
24 | ACTCTCGG | -0.0365
25 | TCCGAAAA | -0.0917

Row | Sequence | PBM E-score
26 | GAATCGGC | 0.115
27 | CAAAGACC | -0.00163
28 | CACCCATA | -0.11
29 | GATGGACA | 0.00149
30 | CCAGGTTA | -0.157
31 | GTTCAAAA | 0.0819
32 | GTGAGAGA | 0.0107
33 | ACGTGACC | 0.0221
34 | GAATACCC | -0.164
35 | CTTTATAC | 0.0705
36 | ACAAGTAA | -0.0276
37 | CGCCAGAC | -0.107
38 | CAGACTCC | -0.167
39 | ACTAATCT | 0.0267
40 | AGGCTGGA | -0.301
41 | CATCCGCC | -0.0652
42 | ACACGATC | 0.0915
43 | CCGTCATC | 0.385
44 | ATGATTCA | 0.0717
45 | AGATTAGA | -0.00837
46 | AAGTTCGT | -0.00263
47 | GAGCTGCA | -0.0817
48 | ATGACCTA | 0.346
49 | CGCGCCCC | -0.0815
50 | ACCGCTTG | -0.0497

Row | Sequence | PBM E-score
51 | CAACGGGA | 0.0126
52 | CGACATCC | -0.0566
53 | AGATTTCC | -0.0185
54 | ACGTTCTA | -0.00984
55 | AAGGCAAA | 0.166
56 | CTGGTCTA | -0.156
57 | GCCGACTA | -0.0181
58 | AGTAGAAT | 0.249
59 | TACGAGAA | 0.00123
60 | CCGCATCG | -0.0611
61 | TCGCGAAA | 0.0515
62 | TGAAATAA | 0.221
63 | CTAAAATC | 0.0537
64 | GCTTTTAA | -0.0378
65 | AACAGGAG | -0.0951
66 | CGCGTGAC | 0.16
67 | GTGGTACA | -0.122
68 | AGACGAGC | -0.203
69 | GCCTCCAA | -0.0808
70 | GCCGGAGA | -0.102
71 | CTGCGCTA | -0.26
72 | CCATGACG | 0.457
73 | GTAGCTGA | -0.0514
74 | GCACAGAC | 0.0277
75 | CGAAGGTA | 0.0246

Row | Sequence | PBM E-score
76 | ACATTTGG | -0.0495
77 | ATAAAGGA | -0.219
78 | AAAAGAAC | 0.0754
79 | CTCGATAA | 0.0901
80 | CCCCGTCG | -0.187
81 | AGACACAT | -0.114
82 | CGGTATGC | -0.111
83 | ACGGCATG | 0.126
84 | CACCACGA | 0.148
85 | AGACACAG | -0.115
86 | CAGTATGA | 0.159
87 | AAAATAAT | 0.302
88 | AGTAGCGA | -0.0145
89 | AGTCCGGA | -0.11
90 | CCAATAAA | 0.158
91 | GACCTGTA | -0.0339
92 | CTGGTTGA | -0.235
93 | GGAAGCTA | -0.156
94 | GAAAGTGC | -0.152
95 | CTTTAAGA | 0.149
96 | GAGCGACA | -0.0394
97 | GCTGAGCA | -0.0607
98 | GCCCGCCC | -0.158
99 | GTTAACCA | 0.105
100 | CACAGTAA | 0.243

Row | Sequence | PBM E-score
101 | GTGCAAGA | 0.135
102 | ACTCACAT | 0.057
103 | ATTATTCC | 0.115
104 | ACCGTTCA | -0.132
105 | ACGCAGAC | -0.048
106 | ATGGGTGG | 0.0397
107 | ATGTGACG | 0.433
108 | CGTATACG | 0.129
109 | AACTAGAC | 0.241
110 | AGCTCGAG | -0.225
111 | GAATTTCC | 0.0654
112 | ATCAGGCC | -0.0722
113 | GAGCGCAC | -0.219
114 | GTCATATA | 0.377
115 | AAGTCGGA | -0.114
116 | AATCAGAT | 0.121
117 | TGCCGCCA | -0.0805
118 | GAAGGAAC | -0.16
119 | CTCTCGAA | -0.0781
120 | GTGAACTA | 0.106
121 | CGGAAGAG | -0.156
122 | GGATATGA | 0.0499
123 | ACAAACTC | 0.0955
124 | AAAAATAC | 0.223
125 | ACCTACGG | -0.224

Row | Sequence | PBM E-score
126 | GCGGACAA | 0.0964
127 | AAGAGTTG | -0.00769
128 | AGTATGCA | -0.0835
129 | CACTCGAA | 0.0172
130 | CTCTACCA | -0.154
131 | AGTAGTGA | 0.177
132 | AGAGGGAT | -0.219
133 | AGGGAGGG | -0.282
134 | GGCTATCA | 0.0107
135 | CACCCGGC | -0.252
136 | GTCCGGAC | 0.00319
137 | CTCGCCAG | -0.203
138 | GTTCCAAC | 0.106
139 | ACTCGCTG | -0.143
140 | ACCTCAGG | -0.184
141 | ACCAATCG | -0.0755
142 | AGAATGAC | 0.354
143 | CAGAGGCG | -0.0136
144 | AAGTGAAT | 0.207
145 | CAGTCTTC | -0.245
146 | TAGTTACA | 0.0807
147 | ATCTAATA | 0.228
148 | CCCCATCA | -0.129
149 | CAGCTATC | -0.2
150 | ACTAGACA | 0.166

Row | Sequence | PBM E-score
151 | CGTAGATC | 0.143
152 | TATTGTGA | 0.149
153 | AGCTTCGC | -0.134
154 | CGTCCTAG | -0.197
155 | AAAGACTA | -0.0453
156 | CAAGGGAG | -0.266
157 | AAGCCGGT | -0.0995
158 | GCGGGAGC | -0.313
159 | ATCCCCAT | 0.00935
160 | ATGTATGC | 0.232
161 | CCGTACGC | 0.12
162 | AATCCTAT | 0.0106
163 | CCAGGTTC | -0.342
164 | CCATCAGC | -0.113
165 | CCCAATCC | -0.262
166 | GGAGACAA | 0.00059
167 | CTTTCCTC | -0.144
168 | GCGACCCA | -0.283
169 | CCCCCCGC | -0.306
170 | GGCAGGCC | -0.332
171 | GCTGTGCA | -0.176
172 | CAAAGGTG | -0.0715
